The values that follow come from publication PMC10726135.

The list shows a part of the results. At the low end of the ranking the order means little. Measured with an extract: partners may take part in the binding.

This assay concerns the target T1, HNF4alpha2 (COS-7 nuclear extract) (UniProt P41235).
T1 sequence: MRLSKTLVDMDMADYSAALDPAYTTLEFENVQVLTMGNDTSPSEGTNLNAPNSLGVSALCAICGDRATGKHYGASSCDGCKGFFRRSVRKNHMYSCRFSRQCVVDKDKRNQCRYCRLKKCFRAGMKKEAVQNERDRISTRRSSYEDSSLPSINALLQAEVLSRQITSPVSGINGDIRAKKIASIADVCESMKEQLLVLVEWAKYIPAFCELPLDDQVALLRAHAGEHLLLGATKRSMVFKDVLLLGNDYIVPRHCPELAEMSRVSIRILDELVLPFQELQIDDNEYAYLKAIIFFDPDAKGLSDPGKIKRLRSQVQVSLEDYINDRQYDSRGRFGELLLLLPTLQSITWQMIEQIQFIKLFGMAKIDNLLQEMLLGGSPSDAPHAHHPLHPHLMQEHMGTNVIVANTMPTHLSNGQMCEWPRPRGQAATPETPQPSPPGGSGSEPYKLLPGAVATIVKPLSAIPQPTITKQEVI
The assay is described as follows: protein-binding microarray. To be noted: COS-7 nuclear extract on double-stranded Agilent 4x180k PBM; binding buffer, salt, pH and temperature not given; high values mean tight binding; double strand, one strand shown; sequences stand for … in …GCCTAGGGAGATTAGAGTATCGGTCGA
Regarding TGAAAGTTCTCTGGGCTTTTTGATCTTGTC, the binding signal (log2 normalized intensity) was 1.66.

With AAATCACAATTTTCAAGAACAAACAAATTT, the binding signal (log2 normalized intensity) is -1.05. With ACGCACGGCAGAGCACCTGGATAAGCCAGA, the binding signal (log2 normalized intensity) was -1.22. Under CCCCCTGCTCCAGGCCGGCTTGCGTCCCCA stands 3.43; under AGCCTACCCACCCACACCTCCCCTTTGTTT, 3.59; under TTGAGGAGAGTCAAAGGTTAATGAGCCCCC, 4.32.

For the sequence AAACTTTAGTAGTCCAAAGCTCAGATTGCC, the binding signal (log2 normalized intensity) was found to be 0.566. Consider GGATAGAATCAAAGGTCAGGAATCGCATTG, for which the binding signal (log2 normalized intensity) was 3.1. Regarding CTTTCTGCATCGCAGTCGCCTGCAAGACAA, the binding signal (log2 normalized intensity) was -0.955.

Turning to GTGTCTCCGAGATAAGGCGTCTTATCAGCC, the binding signal (log2 normalized intensity) was -1.15. The figure for TGGGTTCTTGCCCTTTGGTCTGGAACACAG is 3.31; for TATCTCACTTATTTGTCATAATGCTCTTAT it is 1.75; for ATAGCTACGGGTGACCTTGAGCACTAAAGA it is 0.298.

Turning to GGTCTTTGCCCTTTCCTAGACGTAAGACAA, the binding signal (log2 normalized intensity) amounted to 1.43. TACAAATTCCAAGGACTGAGATAAGAGAAG: the binding signal (log2 normalized intensity) is -1.12. As to CTCCCTCTGAAGGGAGGGCCAAGCCCTCCA, the binding signal (log2 normalized intensity) is -1.08. The figure for TGGCCATTTGGGAAACCGCGATTAAAAATG is -1.13. As for AGTGCAAAGGAGTCTGATTGTTGTGTGCCC, the binding signal (log2 normalized intensity) worked out at 1.93.

Take ACTGCGAAAGATAAAAGGCCATAGGGAAAG: the binding signal (log2 normalized intensity) is -1.11.

As for CCCCTCTTTATCTCCTGGAATCCAAAGTAT, the binding signal (log2 normalized intensity) was 1.68. For the sequence CCAGTGGTATGCCTCTGGGTGTCAGGGTTC, the binding signal (log2 normalized intensity) was 2.12. The figure for TGTGAGGATTGATTAGATAACATCTGGACT is 1.7; for AACCATACCTGGACAGCCTTTTTCAAGCAA it is -0.955; for CAGTTTCTTTAAGACAAGTGTCCCTCAAAC it is 0.959.

As for CGTGAGAAGAGGACTTTTTTTTGCCTAACT, the binding signal (log2 normalized intensity) was -1.12. With TTGAGTCCATCCCATCTTCCAGAAATGCCA, the binding signal (log2 normalized intensity) amounted to 0.189.

ACGTCGAGCAGGCCCCGTCCCCGCCCCTTG: the binding signal (log2 normalized intensity) amounted to 5.05. For ACTCTGAAGGAATGTAAACTCCAAGGAGCA, the binding signal (log2 normalized intensity) was -1.13. For the sequence AGGCAAGAAGTATGACAACAAAGCATTATC, the binding signal (log2 normalized intensity) is -1.2. Under TGACTTTACCTGAAATGAGACCAAAGTATT stands 0.763; under CTGTTTTCAAACACAGGATTGAACCTCTGG, 2.54; under TATCAGACCAGCATTCTTTCTGCTGCAATT, -1.12. For GGGTGGAAATCATCTCCATGCCGACTCCGA, the binding signal (log2 normalized intensity) is -1.08. As to CAGACACACAGTCCACAGGCTATAGGGAAG, the binding signal (log2 normalized intensity) was -1.07. Turning to GAGCATACATGCAGCTGAGAAAGAGAAAAT, the binding signal (log2 normalized intensity) was -1.1. The figure for GCTGGGTCAAAGTGTATGCATATTTTAAGT is 2.1. As for AGAATATTAGATGATAAGGGTGAAAAGATA, the binding signal (log2 normalized intensity) was -0.989.

On to GTGCAGCTGACCTACATTCCACCCTCATTT, for which the binding signal (log2 normalized intensity) is 0.82. On to AAGCAGGACTTAAACACCAGTACTCTTTAA, for which the binding signal (log2 normalized intensity) is -1.11. With AGGCTGAAGTGAAGTTACAAAGGTCACGCT, the binding signal (log2 normalized intensity) was found to be 4.83.

In the case of TTTAAAGTGTAATTAAGGAAGATGGTGCAA, the binding signal (log2 normalized intensity) came out at 0.522.

Consider TAACAAGGCAAACTTTATCAAGACTGCAGC, for which the binding signal (log2 normalized intensity) was -1.18. For the sequence TTTGGAGTTTGACCTGGAGCCAGGGCCTTT, the binding signal (log2 normalized intensity) worked out at 3.11. On to TACTGACTGAGAAACCAAGATCCTAGTCTT, for which the binding signal (log2 normalized intensity) was -1.24. Under TGGTGCAAAGGTCAGGACAAGGCTCTGGTG stands 3.95; under ACCATTGCTTCAGCAAAACCAGTTTGTCTG, -1.04.

Take CTCTGTTACACAAAATCGCCACTACAAAGG: the binding signal (log2 normalized intensity) was -0.977. Under GAGCACCTGGATAAGCCAGATAATTTGTGC stands 0.299; under AGTGAGTGAAACATCCCACTCAAAGGTCAG, 3.2. For the sequence CATTTTTTTCCACCCTCCCCTCCCCCTCCT, the binding signal (log2 normalized intensity) was 6.28. Regarding CCCTTTGTACCTGGGGCAAACATCAATTTA, the binding signal (log2 normalized intensity) came to 0.862. Take AGAATTCCCATCCCACTAGGTGGCGCTGTT: the binding signal (log2 normalized intensity) was -1.08. Under ACCTTTGCCCTGTTGTCTTTGCCCAAACCA stands 2.08. Under GATTCTAGGGCCCATGCCCTTAGCCACTGC stands -1.02; under GCCTCCATTAATTAACCTTTGAGCTGGGTG, 4.3.

With TCTAAGACATAACACAGGTGACCTTTGCTC, the binding signal (log2 normalized intensity) amounted to 8.37.

Turning to CTCACGGACCCTGTTACCACACCACAGCGG, the binding signal (log2 normalized intensity) is -1.21. Consider GTTAGGGTGAAGTAAAGTTATACTTCTATG, for which the binding signal (log2 normalized intensity) was -0.551. The figure for GAAGCTGCACACATGTCAAAGGTCAAAGGG is 5.6; for GGGGGCGAGCATGGCCGCTCCGCGAGGTGA it is -1.28. For ATGCTTCCCAGAAAGAATGAGCGGGAACCT, the binding signal (log2 normalized intensity) is -1.13. With ACGAATAATCATATCTGCCTCAGTAGTAGT, the binding signal (log2 normalized intensity) amounted to 1.38.

In the case of TCAAATTCCTGGGCTCAAACAATCCTCCCA, the binding signal (log2 normalized intensity) is -1.19.

For the sequence CTAGGTAAGCCCACTAGGGAATGAAGCTAA, the binding signal (log2 normalized intensity) was -1.01.

GATGACCCCTCTCTACTGGTAAGCAAATAT: the binding signal (log2 normalized intensity) was determined as 1.81. With GGATATTTGATCAAAGGTCAGCTCTCCTTT, the binding signal (log2 normalized intensity) was found to be 4.59.

In the case of CTTAGAATCGAATTGTGAAACTCAGAATCA, the binding signal (log2 normalized intensity) is -1.03. As to CCATTGCTTTCTTCCAAGGCTGCAAGCAAA, the binding signal (log2 normalized intensity) was -1.12. Under TGCCATGGGCCTGGCTGAGCCTGGGCCGCC stands -1.23. Under TCTTGGCCTCCCCCTTCTGAGTCTCCAATG stands 2.62; under TGGTGCCCTCTGAGTGTTTGACCTTTCACC, 7.66; under GGGCGGCCGGCGGAGCGCCGAGCAGGCACC, -1.08. In the case of AAATATTGTCAGTGAGGAATGTGCAAACGG, the binding signal (log2 normalized intensity) stood at 0.908.
